Values marked as one replicate rest on one cluster of the flow cell; about a third of the high ones do not repeat.

This note sets out measurements from the supplement of paper PMC10126150.

The data set relates to ATP. Description: switch fluorescence ratio, 500 uM ATP over buffer (Cy3 cluster intensity, sum of 5 cycles each) (fold (ratio)); higher = stronger signal-on switching upon ATP binding; sequences stand for … in TCGTCGGCAGCGTCAGATGTGTATAAGAGACAGTTTTTTTTTTTTTTTTTTTTTTTTT…TC. The settings on record: aptamer strand: ATP DNA aptamer (quencher-CACCTGGGGGAGTATTGCGGAGGAAGG + anchor), 100 nM annealed; ATP concentration: 500 uM; one replicate. In short, it runs like this: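 Values give the fluorescence ratio for each switch-domain sequence, averaged from per-cluster ratios of summed target-cycle to summed buffer-cycle Cy3 intensity. The Cy3-labelled switching-strand clusters sat on a modified Illumina MiSeq flow-cell, were annealed to 100 nM quencher-labelled ATP aptamer, and were imaged in selection buffer, then after 15 min with 500 uM ATP at 22 °C. Five cycles ran with NaOH stripping and re-annealing between them, and clusters outside 100-1000 RFU were excluded.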
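Further: ATP exposure 15 min at 22 °C before imaging.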

For TTGGGACGGC, the switch fluorescence ratio came to 0.987.
GGTGTCATGG: the switch fluorescence ratio was 0.971.
As for TTGGATGCAT, the switch fluorescence ratio worked out at 0.999.
Turning to GTGTCTCGAA, the switch fluorescence ratio came to 0.968.
The value for GCAGTTTGAC was 1.05.
Regarding ATATAGGACC, the switch fluorescence ratio came to 1.02.
In the case of GTTTTGACTA, the switch fluorescence ratio is 0.997.
Then GTGTAAAAAG, with 1.01.
Consider TTATTCTCTA, for which the switch fluorescence ratio was determined as 1.
As for ATATTTAACG, the switch fluorescence ratio came out at 1.01.
Consider CAGCTAGAAT, for which the switch fluorescence ratio was 0.979.
GTGGGGGATA: the switch fluorescence ratio was 1.07.
The value for ATTAGAAGAG was 0.981.
With TTACATGGCT, the switch fluorescence ratio was determined as 1.04.
The value for TGCTAGGCCA was 0.98; that for TTAGTTCAAG was 0.966; that for AATGTGGGTT was 1.
In the case of CTTGATTAGC, the switch fluorescence ratio came to 1.
As for AGAATGTTG, the switch fluorescence ratio is 0.962.
TAGTCGGCCC: the switch fluorescence ratio was found to be 1.01.
Then GCGAACCATG, with 1.01; and AAGTGAGTTC, with 0.975.
The value for CTATAGAGAG was 0.991.
Then CCCGTTACGA, with 1.41; and CACCATGGAA, with 0.995.
As for TGTTAAGGTT, the switch fluorescence ratio is 0.966.
The value for TAGATGCACC was 1.06; that for TGGGAAATTG was 1.
Take ACAGAGGTAG: the switch fluorescence ratio turned out to be 1.01.
Turning to GTGAGTATAT, the switch fluorescence ratio worked out at 1.
Then TCGCGGCGTG, with 1.02.
Then TTTCACTAGC, with 1.02.
As for GTAAGCGCCG, the switch fluorescence ratio was 1.01.
For AAATGCCGAG, the switch fluorescence ratio worked out at 0.999.
Then CCAAAAACGT, with 1.05; and CGACAGAATT, with 0.974; and TTATATGTCT, with 1.02.
The value for ATTCGCACAA was 1.2.
Take TAGGGTGCTC: the switch fluorescence ratio stood at 1.06.
The value for GATAATGGAG was 0.981.
Take GACACACGAA: the switch fluorescence ratio is 1.34.
Regarding ACTGTTTCAA, the switch fluorescence ratio stood at 0.984.
TGATGCTGAT: the switch fluorescence ratio is 1.
Take ACTCGCAGCG: the switch fluorescence ratio is 1.08.
As to GTAATATCTG, the switch fluorescence ratio amounted to 1.03.
TTCATTGTAG: the switch fluorescence ratio is 0.976.
Then CTATGAAAAA, with 1.07; and TTGGAAGATG, with 0.961.
For TTAAAGCATA, the switch fluorescence ratio was found to be 1.03.
For the sequence ACAATGCCCA, the switch fluorescence ratio was 1.03.
For CCTTTTGCAT, the switch fluorescence ratio was 2.07.
The value for ATGCTCGGCC was 0.989; that for ATCTTCCGGT was 1.12.
Turning to GGAGCTCTTC, the switch fluorescence ratio worked out at 1.1.
Take GGCTTGCGCC: the switch fluorescence ratio was 0.98.
The value for CGGGGCAGTT was 1.03; that for ACCGTGCACG was 1.02; that for CTGAAAGGGG was 0.962.
In the case of ATTGTATTTC, the switch fluorescence ratio is 1.01.
Regarding AATTAGGTAG, the switch fluorescence ratio was found to be 0.982.
The value for TGCTCATTAG was 0.976; that for CTGAGCGCTT was 1.09; that for GGTTTTTAAC was 0.962.
With CAGTTCTCAT, the switch fluorescence ratio is 1.
Consider TTTAGTATG, for which the switch fluorescence ratio is 1.04.
The value for AATGAGGCAA was 1.41; that for CTGGGCACCT was 1.05; that for TCCGATTGT was 1.68.
AGGGTCCTAT: the switch fluorescence ratio is 0.991.
Then AGCAAATTTC, with 1.03.
Then CGCATGCCTG, with 1.21; and ACGGGCGAGG, with 0.983; and TTGAGCTATC, with 1.06.
The value for TCATTAACAA was 0.995.
As for ACCTTTCTCA, the switch fluorescence ratio turned out to be 2.12.
Take TCTGTGACGG: the switch fluorescence ratio stood at 1.
Then AATCCAGTG, with 1.11; and AGGGGGGTA, with 0.998; and GCCTTTGCCT, with 0.991.
